From US20230122503A1, “ANTI-PSMA RADIOCONJUGATES AND USES THEREOF” (Janssen Biotech, Inc., priority 2021, published 2023)

B1: PSMB1113 (antibody)
heavy: EVQLVESGGGLVKPGGSLRLSCAASGFTLSIYSMNWVRQAPGKGLEWVSSISSSSSYIFYADSVKGRFTISRDNAKNSLFLQMNSLRAEDTAVYYCARSSYGADYWGQGTLVTVSS[human IgG1 constant region not given here]
light: EIVMTQSPSSLSASVGDRVTITCRASQDITNFLAWYQQKPGKVPKLLIYTASTLQSGVPSRFSGSGSGTDFTLTISSLQPEDVATYYCQKYNSAPLTFGGGTKLEIKRTVAAPSVFIFPPSDEQLKSGTASVVCLLNNFYPREAKVQWKVDNALQSGNSQESVTEQDSKDSTYSLSSTLTLSKADYEKHKVYACEVTHQGLSSPVTKSFNRGEC
B2: PSMB1195 (antibody)
heavy: EVQLVESGGGLVKPGGSLRLSCAASGFTFSSYSLNWVRQAPGKGLEWVSSISSSSSYISYADAVKGRFTISRDNAKNSLYLQMNSLRAEDTAVYYCARDRGFLEDYYYYYGMDVWGQGTTVTVSS[human IgG1 constant region not given here]
light: DIVMTQSPSSVSASVGDRVTITCRASQGISNWLAWYQQKPGKAPKLLIYVASSLQSGVPSRFSGSGSGTDFSLTISSLQPEDFATYYCQQAYSFPLTFGGGTKVEIKRTVAAPSVFIFPPSDEQLKSGTASVVCLLNNFYPREAKVQWKVDNALQSGNSQESVTEQDSKDSTYSLSSTLTLSKADYEKHKVYACEVTHQGLSSPVTKSFNRGEC

Columns and labels:
[1] = SE HPLC of purified antibodies (% monomer post protein A); format: physicochemical; settings: post protein A purification
Method: SE HPLC of the purified antibodies was performed by running samples on a TOSOH TSKgel BioAssist G3SWxl column, in 0.2 M Na Phosphate pH 6.8 at 1 mL/min on a Waters Alliance HPLC for 20 min. The column effluent was monitored by absorbance at 280 nm. For a molecule to be considered a therapeutic lead, it is critical that it can be produced in substantial amounts with high purity and high yield. Typically, purification losses are higher, and yields are lower with aggregation-prone proteins. The initial monomer percentage is generally considered a good surrogate indicator of the manufacturability of a protein.

[2] = molecular target: T1, recombinant human ECD (human PSMA) (Homo sapiens, UniProt Q04609); experiment: SPR (BIACORE 8K) binding of anti-PSMA antibodies to recombinant human PSMA ECD; settings: antibody captured on anti-Fc C1 chip, PSMA antigen titrated, 1:1 Langmuir model
T1 construct: made in house
Method: The binding affinity of purified anti-PSMA antibodies to the recombinant human ECD was determined by surface plasmon resonance (SPR) using a BIACORE 8K instrument. The antibodies were captured on a goat anti-Fc antibody-modified C1 chip and titrated with 3-fold serial dilutions of PSMA antigen spanning concentrations of 1 nM to 11.1 nM. The association and dissociation were monitored for 3 and 15 minutes, respectively, using a flow rate of 50 μL/min. Raw binding data was referenced by subtracting the analyte binding signals from blanks and analyzed using a 1:1 Langmuir binding model using the Biacore Insight evaluation software to obtain the kinetics which were used to calculate the binding affinity.

[3] = Thermal stability by nanoDSF (Tm, Tagg); format: physicochemical; settings: 20° C. to 95° C. at 1.0° C./minute
Method: The thermal stability (conformational stability) of the anti-PSMA antibodies was determined by nanoDSF method using a Prometheus instrument. Measurements were made by loading sample into 24 well capillary from a 384 well sample plate. Duplicate runs were performed. The thermal scans span from 20° C. to 95° C. at a rate of 1.0° C./minute. The data was processed to obtain integrated data and first derivation analysis for 330 nm, 350 nm, Ratio 330/350, and scatter data from which thermal transitions, onset of unfolding, Tm and Tagg were obtained.
“Tm” or “mid-point temperature” is the temperature midpoint of a thermal unfolding curve. It refers to the temperature where 50% of the amino acid sequence is in its native conformation and the other 50% is denatured. A thermal unfolding curve is typically plotted as a function of temperature. Tm is used to measure protein stability. […] The Tm can be readily determined using methods well known to those skilled in the art such as Circular Dichroism Spectroscopy, Differential Scanning Calorimetry, Differential Scanning Fluorimetry (both intrinsic and extrinsic dye based), UV spectroscopy, FT-IR and Isothermal Calorimetry (ITC).
“Tagg” refers to the temperature at which the protein starts to aggregate either through dimerization or oligomerization. The aggregation temperature detects the onset of aggregation, the temperature at which a protein will show a tendency to aggregate. Tagg can be determined by differential scanning calorimetry (DSC), Differential Scanning Fluorimetry (DSF) or by circular dichroism (CD). These techniques can detect small changes in the conformation of the protein and therefore detect the starting point of aggregation. Tagg values can be lower or higher than Tm. In cases where Tagg is lower than Tm, the protein either dimerizes and/or oligomerizes first and then starts unfolding later at higher temperatures than the Tagg. In cases where Tagg is higher than Tm, the protein starts to unfold first and then aggregates at a higher temperature than the Tm. Both events are commonly observed and depend on amino acid composition and protein conformation.
Thermal unfolding parameters, Tm or midpoint temperature of thermal unfolding and Tagg or aggregation temperature of selected anti-PSMA antibodies are shown in Table 23.

[4] = tested on: C4-2b cells, a cell line with high PSMA expression; experiment: Cytotoxicity of MMAF-conjugated anti-PSMA antibodies on C4-2B cells (Cell Titer Glo, 72h); format: cell-based, human; settings: MMAF-conjugated antibody, DAR ~4.0, 72h, read-out: Cytotox (IC50) C4-2B, DAR ~4.0
Method: mAbs were conjugated to a monomethyl auristatin F (MMAF) payload in a 96-well format to enable screening for optimal ADC candidates. 220 ug of each mAb (1 mg/mL in dPBS) was mixed with TCEP to a final concentration of 3 mM and incubated at 37° C. for 1r. Reduced mAbs were captured on protein A resin (Protein A HP Multitrap, GE) and washed 3× with 100 mM potassium phosphate containing 2 mM EDTA at pH 7.5 to remove TCEP.
A mixture of maleimide-PEG4-vcPAB-MMAF and N-ethyl maleimide (60:40 molar ratio, 100 uM total in 100 mM potassium phosphate containing 2 mM EDTA at pH 7.5) was prepared and the resin with bound mAb was resuspended in 300 uL of the maleimide mixture. Samples were rotated for 1 hr at RT followed by quenching with N—Ac-L-Cys (2.6 mM final). […] ADC concentrations and DAR (panel average of 4.0±0.5) of the eluted ADCs were determined by UV-Vis spectrophotometry at 248 and 280 nm based on previous reports (Hamblett, et. al., (2004) Clinical Cancer Research, 10, 7063-7070; Cruz and Kayser (2009) Cancers 11(6), 870)
C4-2b cells, a cell line with high PSMA expression, were cultured in RPMI1640 containing GlutaMAX, 25 mM HEPES and 10% fetal bovine serum (FBS) and then plated in white 96 well plates at 3000 cells per well (60 uL/well). […] Following 72h of treatment, cell viability was assessed by Cell Titer Glo (Promega), according to manufacturer's instructions. […]

T1 sequence (Q04609 with tags, fused parts or gaps): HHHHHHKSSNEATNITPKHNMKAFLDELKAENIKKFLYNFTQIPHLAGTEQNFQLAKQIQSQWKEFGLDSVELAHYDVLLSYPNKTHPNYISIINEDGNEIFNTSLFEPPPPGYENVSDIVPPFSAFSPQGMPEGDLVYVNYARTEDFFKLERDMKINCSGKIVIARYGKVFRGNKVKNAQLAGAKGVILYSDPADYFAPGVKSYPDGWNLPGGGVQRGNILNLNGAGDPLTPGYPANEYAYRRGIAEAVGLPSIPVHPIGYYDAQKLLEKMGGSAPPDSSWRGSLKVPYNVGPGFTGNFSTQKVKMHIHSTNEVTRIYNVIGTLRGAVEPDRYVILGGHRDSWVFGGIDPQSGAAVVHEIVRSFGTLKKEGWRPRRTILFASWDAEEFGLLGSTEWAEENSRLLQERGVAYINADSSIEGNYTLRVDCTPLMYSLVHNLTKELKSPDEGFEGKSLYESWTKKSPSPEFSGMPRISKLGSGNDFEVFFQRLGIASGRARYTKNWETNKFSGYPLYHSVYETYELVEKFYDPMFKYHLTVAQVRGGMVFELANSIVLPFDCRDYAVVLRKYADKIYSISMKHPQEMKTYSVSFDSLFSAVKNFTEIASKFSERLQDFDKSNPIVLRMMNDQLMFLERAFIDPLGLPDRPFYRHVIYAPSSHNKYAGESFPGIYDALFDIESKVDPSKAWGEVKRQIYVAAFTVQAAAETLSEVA

Row | Molecule | SEC (% monomer post protein A) [1] [%] | Koff [2] [s⁻¹] | Kon [2] [M⁻¹ s⁻¹] | Fab Tm [3] [°C] | Tagg [3] [°C] | IC50 [4] [nM]
1 | B1 | 96.7 | 6.65e-05 | 57300 | 72.0 | 73.2 | 0.0755
2 | B2 | 97.4 | 0.000101 | 10700 | 80.0 | 79.6 | 0.166
